Experimental findings from the supplement of paper PMC3334620 are described below.

The full ranking holds about 33,000 sequences; the median of “E-score (-0.5 to 0.5)” is about -0.054, and the highest 2% start at about 0.35. The list shows a part of the results.

The experiment deals with T1, Stb5 (UniProt P38699).
T1 sequence: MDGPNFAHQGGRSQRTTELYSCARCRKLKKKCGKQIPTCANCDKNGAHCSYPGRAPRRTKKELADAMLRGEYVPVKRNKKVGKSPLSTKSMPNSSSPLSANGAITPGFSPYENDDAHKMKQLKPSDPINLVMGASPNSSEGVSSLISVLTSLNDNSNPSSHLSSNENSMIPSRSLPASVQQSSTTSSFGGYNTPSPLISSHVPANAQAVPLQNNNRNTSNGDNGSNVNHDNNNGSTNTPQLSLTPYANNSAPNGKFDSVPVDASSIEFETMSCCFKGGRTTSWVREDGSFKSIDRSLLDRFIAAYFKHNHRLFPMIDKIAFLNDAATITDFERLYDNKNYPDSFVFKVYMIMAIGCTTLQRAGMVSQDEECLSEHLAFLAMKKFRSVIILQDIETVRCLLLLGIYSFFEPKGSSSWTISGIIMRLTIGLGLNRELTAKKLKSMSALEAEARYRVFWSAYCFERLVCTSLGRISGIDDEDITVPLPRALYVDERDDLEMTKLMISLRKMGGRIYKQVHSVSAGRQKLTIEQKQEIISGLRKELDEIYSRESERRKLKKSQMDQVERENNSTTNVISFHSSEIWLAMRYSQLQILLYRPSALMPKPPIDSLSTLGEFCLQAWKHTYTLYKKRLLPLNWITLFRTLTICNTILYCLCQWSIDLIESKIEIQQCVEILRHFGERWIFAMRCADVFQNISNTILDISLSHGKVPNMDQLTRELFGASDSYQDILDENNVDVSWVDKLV
Put plainly: PBM E-score (8-mer binding enrichment) (E-score (-0.5 to 0.5)); higher = stronger / more preferred TF binding; most listed sequences are background and not binding sites. The settings on record: protein concentration: 200 nM; construct: GST-full length. The method in brief:
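Universal all-10-mer Agilent arrays, double-stranded by primer extension on fresh or once-stripped slides, were probed with about 100-200 nM GST-tagged yeast transcription factors made by PURExpress. Fluorescent anti-GST detected bound protein, and masliner normalised the scans. E-scores from the Universal PBM Analysis Suite were given to each ungapped eight-base word pooled with its reverse complement.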
As to ATTAGCCC, the “PBM E-score” value was determined as 0.273.

With ATGCCTGA, the “PBM E-score” value was -0.175.

With GTCCTTCA, the “PBM E-score” value was determined as 0.0386.

Turning to CTCCCAAG, the “PBM E-score” value is -0.215.

Turning to ACCTAATC, the “PBM E-score” value was -0.095.

AAAGATAT: the “PBM E-score” value was -0.0472.

With TCGCAGCA, the “PBM E-score” value is -0.288.

Regarding CCAGATTC, the “PBM E-score” value was -0.00466.

On to CACGCCCG, for which the “PBM E-score” value turned out to be 0.0876.

Regarding ATGTGGAG, the “PBM E-score” value worked out at 0.0382.

Turning to GAATGCCC, the “PBM E-score” value turned out to be 0.0727.

In the case of GAAACATC, the “PBM E-score” value was determined as 0.0249.

Consider ATTGCGCG, for which the “PBM E-score” value came to 0.194.

For ATCATTTA, the “PBM E-score” value is -0.133.

Regarding GACACGGC, the “PBM E-score” value stood at 0.175.

For the sequence GGAAGCAA, the “PBM E-score” value is -0.104.

Regarding CATAAGGC, the “PBM E-score” value was 0.126.

For ACCGGGTG, the “PBM E-score” value was found to be 0.182.

For the sequence ACCTGACG, the “PBM E-score” value is -0.204.

Take ACCGTGAT: the “PBM E-score” value was 0.228.

In the case of GCACCCCC, the “PBM E-score” value was -0.187.

For the sequence CTGACCAA, the “PBM E-score” value was -0.176.

Consider AGCAACCT, for which the “PBM E-score” value was -0.117.

As to GGGGAACC, the “PBM E-score” value was -0.106.

For the sequence TGGTCACA, the “PBM E-score” value was -0.157.

As to AGCAGTAC, the “PBM E-score” value is -0.0288.

Take CTCTCGTA: the “PBM E-score” value is -0.267.

Turning to ACCACGTC, the “PBM E-score” value was -0.0616.

With ACCACATC, the “PBM E-score” value is -0.229.

As to AACTTTGG, the “PBM E-score” value is -0.251.

Turning to ATGTTGAG, the “PBM E-score” value is -0.154.

As for GCAATTCC, the “PBM E-score” value is -0.0041.

CCTCAGAC: the “PBM E-score” value came to 0.0202.

On to GGGGTACA, for which the “PBM E-score” value came out at 0.226.

As for ACAATACC, the “PBM E-score” value turned out to be 0.13.

Turning to CCAAATCG, the “PBM E-score” value is 0.0509.

Take AACAGGTG: the “PBM E-score” value was -0.162.

On to ACTACCGG, for which the “PBM E-score” value was 0.279.

As to GCAATGGA, the “PBM E-score” value is -0.0757.

As to AAACAAGT, the “PBM E-score” value is -0.0683.

CTGGGGCC: the “PBM E-score” value is -0.0638.

For AGCCCCGC, the “PBM E-score” value was found to be 0.421.

On to GATGCCCC, for which the “PBM E-score” value is -0.0868.

Consider AAGTGGCA, for which the “PBM E-score” value was -0.214.

ATTGACCA: the “PBM E-score” value is -0.0516.

For the sequence TCGCAACA, the “PBM E-score” value is -0.193.

Consider GATTAGCA, for which the “PBM E-score” value was -0.0315.

CTGCCTCA: the “PBM E-score” value was -0.16.

GTTAAACA: the “PBM E-score” value amounted to 0.101.

Regarding CGCTAATA, the “PBM E-score” value came out at 0.278.

As to CACCATTA, the “PBM E-score” value is -0.0162.

As for ACTGCTTA, the “PBM E-score” value was -0.215.

Regarding ATATGACG, the “PBM E-score” value came to 0.0678.

As to CATCTCGG, the “PBM E-score” value was found to be 0.106.

As to AGAGCCAG, the “PBM E-score” value was -0.222.

AAATCGTC: the “PBM E-score” value is 0.0407.

In the case of ACCACAGA, the “PBM E-score” value was -0.0655.

As for AACGCTTC, the “PBM E-score” value is -0.22.

Turning to AACCACCA, the “PBM E-score” value is -0.124.

For the sequence ACCGCGGG, the “PBM E-score” value was determined as 0.317.

With CTAAAGAA, the “PBM E-score” value is -0.0255.

AGCCGCAT: the “PBM E-score” value came to 0.0777.

For ATGAAAAG, the “PBM E-score” value was -0.248.

On to CTCTAGAC, for which the “PBM E-score” value was -0.146.

Regarding ACATACTA, the “PBM E-score” value is -0.032.

In the case of ATATCTGC, the “PBM E-score” value stood at 0.0369.

Take ACGTCCCT: the “PBM E-score” value is -0.169.

With ACGATAAA, the “PBM E-score” value was -0.0668.

Regarding GTTGACTA, the “PBM E-score” value came to 0.0237.

With AACTCTCT, the “PBM E-score” value is -0.148.

Consider GCCTTGGA, for which the “PBM E-score” value was -0.177.

In the case of ACATGTAA, the “PBM E-score” value was -0.0168.

On to AGAGGCTG, for which the “PBM E-score” value is -0.282.

In the case of AAAGTAGG, the “PBM E-score” value is -0.0499.

Take CTCAAACA: the “PBM E-score” value turned out to be 0.159.

Turning to TAGGCCCA, the “PBM E-score” value is -0.295.

With ACTGCCCG, the “PBM E-score” value came to 0.04.

In the case of AGCGCTTA, the “PBM E-score” value came out at 0.0748.

Regarding ATGTGAAC, the “PBM E-score” value is -0.163.

Take ACGACAAC: the “PBM E-score” value is -0.153.

For the sequence TAAATTAA, the “PBM E-score” value was 0.104.

In the case of CCTTGATA, the “PBM E-score” value was -0.0995.

Turning to ATTGCACC, the “PBM E-score” value was found to be 0.246.

ATCTAGCA: the “PBM E-score” value is -0.114.

As to GGCGCTTA, the “PBM E-score” value was 0.228.

For ATATTAAT, the “PBM E-score” value came to 0.0976.

For GATCGACA, the “PBM E-score” value was -0.215.

With GTCGCAGA, the “PBM E-score” value is 0.0129.

On to AATCTTGT, for which the “PBM E-score” value is -0.00431.

On to ACCCTCCC, for which the “PBM E-score” value stood at 0.077.

Consider CCATTTGA, for which the “PBM E-score” value came to 0.032.

In the case of CGTGCTAA, the “PBM E-score” value is -0.169.

Regarding AACGAAGG, the “PBM E-score” value was -0.23.

Turning to CTTCAGTC, the “PBM E-score” value is -0.0437.

For TCTTCGCA, the “PBM E-score” value was determined as 0.0604.

As to TACTCCAA, the “PBM E-score” value was -0.181.

ACGTCAAC: the “PBM E-score” value is -0.0756.

As to ATTGAGTG, the “PBM E-score” value is -0.174.

In the case of GATCAGGC, the “PBM E-score” value was -0.0739.

Take TCCAAGGA: the “PBM E-score” value turned out to be 0.0882.

In the case of AGTCTAGA, the “PBM E-score” value was -0.15.

Consider ATCGCAAA, for which the “PBM E-score” value was -0.106.

Consider GAGCACTA, for which the “PBM E-score” value is -0.13.

As for GCTAATCA, the “PBM E-score” value was -0.0524.

Take AAGATGGA: the “PBM E-score” value was -0.132.

As for GCTGCCCA, the “PBM E-score” value is -0.238.

As to AGCGTTGG, the “PBM E-score” value was -0.236.

As for GCGCTGGA, the “PBM E-score” value was -0.00934.

Consider TATTGCCA, for which the “PBM E-score” value is -0.0262.

In the case of ATTCGCTC, the “PBM E-score” value is -0.0604.
